The least precise scores are not listed. The source holds two more conditions with little spread; they are left out. Read del as a deletion of the residues named and ins as an insertion between two positions. For some of these results: The concentration of ogerin is not given here.
B1: GPR68, Q15743 (parent)
chain: MGNITADNSSMSCTIDHTIHQTLAPVVYVTVLVVGFPANCLSLYFGYLQIKARNELGVYLCNLTVADLFYICSLPFWLQYVLQHDNWSHGDLSCQVCGILLYENIYISVGFLCCISVDRYLAVAHPFRFHQFRTLKAAVGVSVVIWAKELLTSIYFLMHEEVIEDENQHRVCFEHYPIQAWQRAINYYRFLVGFLFPICLLLASYQGILRAVRRSHGTQKSRKDQIQRLVLSTVVIFLACFLPYHVLLLVRSVWEASCDFAKGVFNAYHFSLLLTSFNCVADPVLYCFVSETTHRDLARLRGACLAFLTCSRTGRAREAYPLGAPEASGKSGAQGEEPELLTKLHPAFQTPNSPGSGGFPTGRLA

Assays:
[1] = variants of: B1; assay: cAMP reporter score (Enrich2 score, wild type = 0); higher = more signal; HEK293T, FACS bins
[2] = variants of: B1; assay: surface expression score (Enrich2 score, wild type = 0); higher = more signal; HEK293T, FACS bins

Variant | cAMP reporter score ([1]; pH 5.5) | cAMP reporter score ([1]; pH 6) | cAMP reporter score ([1]; pH 6, modulator: ogerin) | cAMP reporter score ([1]; pH 6.5, modulator: ogerin) | surface expression score [2]
A66G | -0.539 | -0.778 | -0.944 | -0.897 | -1.04
A66H | -2.56 | – | – | -1.51 | –
A66I | -1.2 | -0.204 | – | -0.564 | 1.78
A66K | -1.65 | -0.997 | -1.49 | -1.44 | 1.76
A66L | -1.41 | -0.5 | -1.49 | -0.806 | 1.24
A66M | -1 | -0.526 | -1.68 | -1.13 | 0.114
A66N | 0.777 | 3.44 | 0.087 | -0.574 | 1.82
A66P | -0.682 | -0.936 | -1.06 | -2.09 | -1.76
A66Q | -1.91 | – | -1.61 | -1.52 | -1.2
A66R | -0.794 | -0.558 | – | -1.25 | 0.366
A66S | -0.49 | 0.149 | -0.193 | -1.15 | -0.991
A66T | -1.43 | – | -1.23 | -0.73 | -0.967
A66V | -2.31 | 0.124 | -1.03 | -0.701 | -0.097
A66W | -1.22 | -0.377 | -1.07 | -1.4 | 0.142
D67_F69del | -1.4 | -1.54 | -0.785 | -0.983 | -1.99
D67del | -1.69 | -0.75 | -1.83 | -0.484 | -2.69
L68_F69del | -1.01 | -0.944 | -0.972 | -0.527 | -2.62
L68_F69insG | -0.876 | -0.474 | – | 0.08 | -3.1
L68_F69insGS | -1.94 | -1.96 | -2.16 | -1.44 | -2.48
L68_Y70del | -1.99 | -0.679 | -2.17 | -1.12 | -1.4
L68del | -0.483 | 0.073 | -1.53 | -3.26 | 0.469
F69_I71del | -1.13 | -1.38 | – | -0.619 | -2.8

Variant | cAMP reporter score ([1]; pH 5.5) | cAMP reporter score ([1]; pH 6) | cAMP reporter score ([1]; pH 6, modulator: ogerin) | cAMP reporter score ([1]; pH 6.5, modulator: ogerin) | surface expression score [2]
F69_Y70insG | -1.67 | -0.785 | -0.701 | -0.446 | –
F69_Y70insGS | -0.696 | -1.02 | -0.69 | -1.28 | -1.98
Y70A | -0.449 | -1.53 | -1.23 | -1.23 | -0.896
Y70C | -0.861 | -0.956 | -0.92 | -0.924 | -0.591
Y70D | -0.082 | -1.4 | -0.796 | -0.433 | -2.75
Y70E | -0.965 | -0.762 | -1.2 | -0.178 | -2.48
Y70F | -0.489 | -0.586 | -0.778 | -0.556 | 1.17
Y70G | -1.13 | – | -1.16 | -0.907 | –
Y70H | -0.417 | -0.4 | -0.693 | -0.335 | -0.296
Y70I | -0.185 | 0.598 | 0.749 | 0.659 | –
Y70L | -0.555 | -0.551 | -1.03 | -0.894 | 1.44
Y70M | -0.224 | -0.146 | -0.896 | -0.333 | 0.02
Y70N | 0.718 | – | -0.057 | 1.83 | -2.05
Y70P | -0.718 | -0.444 | -0.621 | -1.67 | -2.53
Y70Q | 0.307 | – | – | – | –
Y70R | -4.62 | – | -1.42 | -2.2 | 0.02
Y70S | -1 | – | -1.29 | -0.639 | -1.3
Y70T | -0.009 | 0.921 | -0.358 | -0.724 | -0.35
Y70V | -0.744 | -1.17 | -0.221 | -0.735 | -0.422
Y70W | -1.64 | -1.48 | – | -1.53 | 0.333
Y70_C72del | -0.796 | -0.368 | -1.54 | -1.15 | -1.98
Y70_I71insG | -1.49 | -1.14 | – | -2.32 | -0.58

Variant | cAMP reporter score ([1]; pH 5.5) | cAMP reporter score ([1]; pH 6) | cAMP reporter score ([1]; pH 6, modulator: ogerin) | cAMP reporter score ([1]; pH 6.5, modulator: ogerin) | surface expression score [2]
Y70_I71insGSG | -2.37 | -1.54 | -2.27 | -1.68 | –
I71_C72insG | -1.5 | -2.05 | -0.113 | -0.529 | -1.52
I71del | -2.04 | -1.75 | -1.89 | -1.02 | -2.38
C72_L74del | -1.64 | – | -1.59 | – | -1.96
C72_S73insGS | -0.413 | -0.547 | – | -4.08 | –
S73_L74del | -2.32 | -1.53 | -2.17 | -1.25 | -2.98
S73_P75del | -1.59 | -1.1 | -2.04 | -1.16 | -2.33
L74A | -1.48 | – | -1.7 | -1.22 | -0.21
L74C | -1.28 | – | -0.684 | -0.427 | -0.393
L74D | -0.692 | -1.68 | -0.743 | -0.822 | -2.45
L74E | -1.5 | -2.02 | – | -0.068 | -3.06
L74F | 0.081 | -0.678 | 0.573 | – | -1.22
L74G | -1.4 | 0.516 | -1.98 | -1.9 | -2.43
L74H | -1.23 | -1.45 | -1.03 | -0.735 | -1.72
L74I | -0.579 | -0.315 | -0.771 | -0.701 | 0.194
L74K | -1.76 | -0.774 | -0.881 | -0.393 | -2.63
L74M | 0.34 | 0.613 | 0.403 | -0.311 | 1.07
L74P | -0.946 | -1.08 | – | -2.54 | -1.67
L74Q | -2.44 | – | – | -0.138 | -1.93
L74R | -1.45 | -1.51 | -1.52 | -1.64 | -2.15
L74S | -1.36 | -0.351 | -0.952 | -0.913 | -0.33
L74T | -1.54 | -1.51 | -0.654 | – | -0.46

Source: the GPR68 mutational scans of Howard et al. (2025)
